Experimental data taken from PubChem BioAssay (NCATS).
Values joined by “and” are separate entries in the source; they are usually repeats but may differ in a detail not shown here. Equal values may be shown once. The list shows a part of the results. These are further read-outs of the screen, such as a control signal, another cell line or another target. No call is given for them. The list favours compounds with an active or inconclusive main result. Potencies come from curve fits of mixed quality, noted in brackets.

experiment: qHTS Assay for Lipid Storage Modulators (AID 1519); details: Drosophila S3 cells, BODIPY lipid droplet/cell ratio, laser cytometry; measured here: cell count channel max response; cells loaded with oleic acid
Outline: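 Cells seeded at 5,000 per well were treated with compounds over a concentration series and loaded with oleic acid (400 uM, as added). Lipid droplet fluorescence (488 nm excitation, 500-530 nm channel) was read by laser-scanning cytometry and normalized to 20 uM Triacsin C.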
Tags give direction and shape of the fitted curve.

SMILES | max response
O=c1c(-c2cccc(F)c2)nc2cncnc2n1Cc1ccccc1 | 21.1%
COc1ccccc1CNc1nc(-c2ccc3c(c2)OCO3)nc2ccccc12 | 24.7%
CCNc1ncc2nc(-c3cccs3)c(=O)n(Cc3ccc(F)cc3)c2n1 | 40%
COc1ccc(-c2nc3cnc(OC)nc3n(Cc3ccc(F)cc3)c2=O)cc1 | 24.5%
O=C1C=CC2=C3c4cc(O)c(O)cc4CC3(O)COC2=C1O (stereo not drawn) | 33.6%
O=c1c(-c2cccc(F)c2)nc2cncnc2n1C1CC1 | 29.2%
COCCn1c(=O)c(-c2cc(F)cc(F)c2)nc2cnc(Oc3ccc(OC)cc3)nc21 | 18.7%
COc1cccc(Nc2ncc3nc(-c4cc(F)cc(F)c4)c(=O)n(C4CC4)c3n2)c1 | 33.1%
COc1cccc(-c2nc(NCc3cccnc3)c3ccccc3n2)c1 | 35.3%
c1cc(NC2CC2)nc(-c2ccoc2)n1 | 30.9%
COc1ccc2c(=O)cc(-c3ccccc3)oc2c1O | 126%
Cc1cnc(CNc2nc(-c3c(C)noc3C)nc3ccccc23)cn1 | 17.7%
Cn1ccc(O)c(C#N)c1=O | 45%
COc1cc2c(CCNC(C)=O)c[nH]c2cc1Cl | 80.8%
COc1ccc2[nH]cc(CCNc3ncnc4ccc(-c5c(C)noc5C)cc34)c2c1 | 10.3%
COC(=O)C1=C(C)NC(C)=C(C(=O)OCCSc2ccccc2)[C@@H]1C | 8.34%
CCCC[C@H](CC)CN=C(N)NC(N)=NCCCCCCN=C(N)NC(N)=NC[C@@H](CC)CCCC | -82.7%
C[N+]1(C)CCc2cc3c(cc2[C@@H]1[C@@H]1C(=O)Oc2c1ccc1c2OCO1)OCO3 | 42.9% and 55%
COCCn1c(=O)c(-c2ccccc2)nc2cnc(OCc3ccccc3)nc21 | 13.3%
COc1ccc(-n2c(=O)c(-c3cccs3)nc3cnc(Oc4ccccc4)nc32)cc1 | 10.2%
COc1ncc2nc(C)c(=O)n(CCC#N)c2n1 | 41.6%
Nc1[nH]nc2nc3ccccc3nc12 | 81.1%
CCN(Cc1ccncc1)C(=O)C(CO)c1ccccc1 (stereo not drawn) | 28.7% and 49.5%

same assay, conditions: Drosophila S3 cells, BODIPY lipid droplet/cell ratio, laser cytometry; measured here: cell number channel AC50; cells loaded with oleic acid

SMILES | AC50
COc1ccccc1CNc1ccnc(-c2cccc(C#N)c2)n1 | 0.282 µM [rising, full curve]
CCNc1ncc2nc(-c3ccc(OC)cc3)c(=O)n(CCc3ccccc3)c2n1 | 0.0891 µM [rising, full curve]
O=c1c(-c2ccccc2)nc2cnc(N3CCNCC3)nc2n1-c1ccccc1 | 12.6 µM [rising, single point]
O=c1c(CCc2ccccc2)nc2cnc(N3CCOCC3)nc2n1C1CC1 | 0.316 µM [rising, full curve, poor fit]
COCCn1c(=O)c(CCc2ccccc2)nc2cnc(Nc3ccccc3)nc21 | 1.78 µM [rising, partial curve]
COCCn1c(=O)c(-c2ccc(OC)cc2)nc2cnc(N3CCNCC3)nc21 | 2 µM [rising, full curve, poor fit]
CN(C)C(=O)c1ccc(-c2nccc(NCc3ccccc3)n2)cc1 | 0.1 µM [rising, full curve, poor fit]
COc1ccc2[nH]c(I)c(CCNC(C)=O)c2c1 | 3.55 µM [rising, full curve]
O=C(O)c1c2ccccc2cc2ccccc12 | 28.2 µM [rising, partial curve, poor fit]
CN1CCN(c2ncnc3ccc(-c4cccnc4)cc23)CC1 | 3.16 µM [rising, full curve, poor fit]
CS(=O)(=O)Nc1cccc(-c2nccc(NCc3cccs3)n2)c1 | 1.12 µM [rising, full curve]
COc1ncc2nc(-c3cn(C)c4ccccc34)c(=O)n(-c3ccccc3)c2n1 | 25.1 µM [rising, single point]
COc1cccc(-c2cc(NCc3cccnc3)ncn2)c1 | 3.16 µM [rising, full curve]
C[C@@H]1O[C@@H](OC[C@H]2O[C@@H](Oc3c(-c4cccc(O)c4O)oc4cc(O)cc(O)c4c3=O)[C@H](O)[C@@H](O)[C@@H]2O)[C@H](O)[C@H](O)[C@H]1O | 3.55 µM [falling, partial curve, poor fit]
COCCn1c(=O)c(-c2ccc(F)cc2)nc2cnc(N(C)C)nc21 | 3.16 µM [rising, full curve, poor fit]
CO/N=C(\C(=O)N[C@@H]1C(=O)N2C(C(=O)O)=C(CSc3nc(=O)c(O)nn3C)CSC12)c1csc(N)n1 (stereo partly drawn) | 39.8 µM [rising, single point]
COc1cccc(Cn2c(=O)c(-c3cccs3)nc3cnc(OCc4ccccc4)nc32)c1 | 3.16 µM [rising, full curve]
O=c1c(-c2cccc(F)c2)nc2cncnc2n1Cc1ccccc1 | 0.891 µM [rising, full curve]
COc1ccccc1CNc1nc(-c2ccc3c(c2)OCO3)nc2ccccc12 | 0.0447 µM [rising, full curve]
CCNc1ncc2nc(-c3cccs3)c(=O)n(Cc3ccc(F)cc3)c2n1 | 1 µM [rising, full curve, poor fit]

SMILES | AC50
COc1ccc(-c2nc3cnc(OC)nc3n(Cc3ccc(F)cc3)c2=O)cc1 | 0.0398 µM [rising, full curve]
O=C1C=CC2=C3c4cc(O)c(O)cc4CC3(O)COC2=C1O (stereo not drawn) | 10 µM [rising, partial curve, poor fit]
O=c1c(-c2cccc(F)c2)nc2cncnc2n1C1CC1 | 3.55 µM [rising, partial curve, poor fit]
COCCn1c(=O)c(-c2cc(F)cc(F)c2)nc2cnc(Oc3ccc(OC)cc3)nc21 | 0.0631 µM [rising, full curve, poor fit]
COc1cccc(Nc2ncc3nc(-c4cc(F)cc(F)c4)c(=O)n(C4CC4)c3n2)c1 | 0.355 µM [rising, partial curve, poor fit]
COc1cccc(-c2nc(NCc3cccnc3)c3ccccc3n2)c1 | 1.26 µM [rising, full curve, poor fit]
c1cc(NC2CC2)nc(-c2ccoc2)n1 | 1.26 µM [rising, full curve, poor fit]
COc1ccc2c(=O)cc(-c3ccccc3)oc2c1O | 28.2 µM [rising, partial curve]
Cc1cnc(CNc2nc(-c3c(C)noc3C)nc3ccccc23)cn1 | 0.794 µM [rising, full curve]
Cn1ccc(O)c(C#N)c1=O | 39.8 µM [rising, single point]
COc1cc2c(CCNC(C)=O)c[nH]c2cc1Cl | 11.2 µM [rising, partial curve]
COc1ccc2[nH]cc(CCNc3ncnc4ccc(-c5c(C)noc5C)cc34)c2c1 | 0.316 µM [rising, full curve]
COC(=O)C1=C(C)NC(C)=C(C(=O)OCCSc2ccccc2)[C@@H]1C | 1.26 µM [rising, full curve]
CCCC[C@H](CC)CN=C(N)NC(N)=NCCCCCCN=C(N)NC(N)=NC[C@@H](CC)CCCC | 15.8 µM [falling, single point]
C[N+]1(C)CCc2cc3c(cc2[C@@H]1[C@@H]1C(=O)Oc2c1ccc1c2OCO1)OCO3 | 31.6 µM [rising, partial curve, poor fit] and 12.6 µM [rising, partial curve, poor fit]
COCCn1c(=O)c(-c2ccccc2)nc2cnc(OCc3ccccc3)nc21 | 0.0501 µM [rising, full curve]
COc1ccc(-n2c(=O)c(-c3cccs3)nc3cnc(Oc4ccccc4)nc32)cc1 | 7.08 µM [rising, single point]
COc1ncc2nc(C)c(=O)n(CCC#N)c2n1 | 1 µM [rising, full curve, poor fit]
Nc1[nH]nc2nc3ccccc3nc12 | 5.01 µM [rising, full curve]
CCN(Cc1ccncc1)C(=O)C(CO)c1ccccc1 (stereo not drawn) | 4.47 µM [falling, partial curve]
